Measured values reported in PubChem BioAssay AID1460 (National Center for Advancing Translational Sciences (NCATS), 2008).
Several values for one entry are separate records, joined by “and”; a condition that tells them apart may be missing. Equal entries are not always repeated. The whole screen tested about 270,000 compounds, of which about 5,800 (2.1%) were called active. The shares of active, inactive and inconclusive entries below differ from those in the screen. Calls follow the shape of the dose curve; as a rule, active = well fitted inhibition curve with a large enough effect; inconclusive = small, poorly fitted or top-dose-only effect; inactive = flat fitted curve, though single readings scatter. Potencies beside an inconclusive call are fits to weak or partial responses and may not hold up.

target: Microtubule-associated protein tau (Homo sapiens) (UniProt P10636); assay: qHTS for Inhibitors of Tau Fibril Formation, Thioflavin T Binding; details: recombinant tau K18 P301L, heparin-induced fibrillization, ThT fluorescence; series mostly up to 57.4 µM; also: nearly all actives have a fitted effect of over 55% in size
Sequence of UniProt P10636 (P10636 whole entry, looked up): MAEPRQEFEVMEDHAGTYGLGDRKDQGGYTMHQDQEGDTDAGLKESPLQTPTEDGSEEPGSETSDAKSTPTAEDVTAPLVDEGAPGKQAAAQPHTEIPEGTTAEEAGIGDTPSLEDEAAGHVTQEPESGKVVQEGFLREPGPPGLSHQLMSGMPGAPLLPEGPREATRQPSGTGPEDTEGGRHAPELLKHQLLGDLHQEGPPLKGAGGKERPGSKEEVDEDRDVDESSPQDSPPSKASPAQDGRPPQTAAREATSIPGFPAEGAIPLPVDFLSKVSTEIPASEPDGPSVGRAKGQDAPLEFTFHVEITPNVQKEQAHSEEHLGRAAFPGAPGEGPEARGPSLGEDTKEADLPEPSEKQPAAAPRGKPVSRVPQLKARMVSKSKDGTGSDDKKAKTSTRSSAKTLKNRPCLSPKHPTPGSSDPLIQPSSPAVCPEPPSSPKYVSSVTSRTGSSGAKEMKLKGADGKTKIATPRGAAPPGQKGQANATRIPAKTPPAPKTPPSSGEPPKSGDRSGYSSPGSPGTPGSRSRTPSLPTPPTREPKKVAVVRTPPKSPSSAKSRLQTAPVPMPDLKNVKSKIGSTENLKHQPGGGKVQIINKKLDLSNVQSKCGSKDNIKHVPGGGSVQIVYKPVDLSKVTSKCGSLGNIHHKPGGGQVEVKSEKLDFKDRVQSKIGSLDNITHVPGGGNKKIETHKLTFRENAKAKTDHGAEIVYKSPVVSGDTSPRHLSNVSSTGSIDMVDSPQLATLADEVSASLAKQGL
Outline: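 ThT emission at 510 nm, taken 1 hr after adding 30 uM dye, quantifies aggregates formed when 20 uM heparin acts on human tau K18 P301L for 6 hr at 37 C.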
Potency is read from the fitted curve at half-maximal effect; tags tell the direction and shape of the fitted curve.

Question: With `CCCCN(C)S(=O)(=O)c1ccc(NC2=NS(=O)(=O)c3ccccc32)cc1` as the molecule, how does the Potency read?
Answer: Its Potency is “inactive”.

Question: How did the Potency turn out when `N#Cc1c(-c2ccccc2Cl)cc(-c2ccccc2)[nH]c1=S` was run?
Answer: Its Potency is “inactive”.

Question: With `CCCNC(=O)C1CCN(C(=O)N2CC(C)Oc3ccccc32)CC1` (stereo not drawn) as the molecule, how does the Potency read?
Answer: The Potency was inconclusive: 0.891 µM [inhibitor, full curve, poor fit].

Question: How did the Potency turn out when `COc1ccc(S(=O)(=O)Cc2ccc(C(=O)N3CCN(c4cccc(C)c4C)CC3)o2)cc1` was run?
Answer: Its Potency is inconclusive: 25.1 µM [inhibitor, partial curve].

Question: For `CC(/C=C/c1ccccc1)=N\NC(=O)c1cc(C)[nH]n1`, which Potency is on record?
Answer: The Potency was inconclusive: 10 µM [inhibitor, partial curve].

Question: `Cc1ccc(-c2nc3ccccc3c(C(=O)NCc3cccs3)c2C)cc1` was tested. Which Potency did it give?
Answer: Its Potency is inconclusive: 22.4 µM [inhibitor, partial curve].

Question: `C=CCc1cccc2cc(C(=O)Nc3ccccc3C(=O)O)c(=O)oc12` was tested. Which Potency did it give?
Answer: The Potency was inconclusive: 12.6 µM [inhibitor, partial curve].

Question: Which Potency does the source give for `O=C(c1ccccc1-n1cccn1)N1CCc2c([nH]c3ccccc23)C1c1ccccn1` (stereo not drawn) here?
Answer: Its Potency is inconclusive: 0.891 µM [inhibitor, partial curve].

Question: With `COc1ccc(OC)c2c1sc(=NC(=O)C(C)(C)C)n2C` as the molecule, how does the Potency read?
Answer: Its Potency is “inactive”.

Question: For `COc1ccc(C2C=C(c3ccc(F)cc3)NC(=S)N2)cc1OC` (stereo not drawn), which Potency is on record?
Answer: The Potency was “inactive”.

Question: For `O=C(CSc1ccc2nnc(-c3ccccc3)n2n1)NCc1ccc2c(c1)OCO2`, which Potency is on record?
Answer: The Potency was inconclusive: 17.8 µM [inhibitor, single point].

Question: For `COc1ccc(NC(=O)c2c(NCc3ccc(OC)c(OC)c3OC)sc3c2CCC3)c(OC)c1`, which Potency is on record?
Answer: The Potency was active: 14.1 µM.

Question: For `COc1ccc(NC(=O)Nc2cc3oc4ccccc4c3cc2OC)cc1`, which Potency is on record?
Answer: Its Potency is inconclusive: 0.631 µM [inhibitor, partial curve, poor fit].

Question: `O=[N+]([O-])c1cc([N+](=O)[O-])c2c(=Nc3ccccc3)n(-c3ccccc3)n(O)c2c1` was tested. Which Potency did it give?
Answer: The Potency was active: 14.1 µM.

Question: How did the Potency turn out when `N#Cc1cnc(NN)nc1` was run?
Answer: Its Potency is “inactive”.

Question: With `Cc1ccc(COCCN2CCN(S(=O)(=O)c3ccccc3)CCC2=O)cc1` as the molecule, how does the Potency read?
Answer: The Potency was inconclusive: 0.0708 µM [activator, full curve, poor fit].

Question: With `COCCSc1nnc(NC(=O)c2cc(C(=O)OC)cc([N+](=O)[O-])c2)s1` as the molecule, how does the Potency read?
Answer: Its Potency is inconclusive: 14.1 µM [inhibitor, partial curve].

Question: How did the Potency turn out when `CCCCCOc1ccccc1CN1C(=O)C(=O)c2cc(C)ccc21` was run?
Answer: The Potency was inconclusive: 20 µM [inhibitor, partial curve].

Question: With `Cc1ccc(OCC(=O)N/N=C/c2cc([N+](=O)[O-])ccc2N2CCCCC2)cc1` as the molecule, how does the Potency read?
Answer: The Potency was “inactive”.

Question: With `O=C(CSCc1ccccc1)Nc1cc([N+](=O)[O-])ccc1F` as the molecule, how does the Potency read?
Answer: The Potency was inconclusive: 31.6 µM [inhibitor, single point].

Question: For `S=C(Nc1cccc(Cl)c1)NC1CCCCC1`, which Potency is on record?
Answer: Its Potency is “inactive”.

Question: Which Potency does the source give for `COc1ccc(OC)c(-c2csc(NC(=O)CSc3ccc([N+](=O)[O-])cc3)n2)c1` here?
Answer: The Potency was inconclusive: 5.01 µM [inhibitor, partial curve].

Question: Which Potency does the source give for `C=CCn1c(O)c(CN2CCOCC2)c(C)c(C#N)c1=O` here?
Answer: Its Potency is inconclusive: 17.8 µM [inhibitor, partial curve].

Question: `CCOC(=O)c1cc(-c2ccccc2)nc2c1c(C)nn2-c1ccccn1` was tested. Which Potency did it give?
Answer: The Potency was inconclusive: 35.5 µM [inhibitor, partial curve].

Question: Which Potency does the source give for `CCCCN(C)CCNC(=O)c1ccc(Cn2c(=S)[nH]c3ccc(Br)cc3c2=O)cc1` here?
Answer: The Potency was inconclusive: 35.5 µM [inhibitor, single point].

Question: With `COc1ccc(-c2ccc(CNCCCSc3nnnn3C)o2)cc1Cl` as the molecule, how does the Potency read?
Answer: The Potency was “inactive”.

Question: Which Potency does the source give for `CC(C)Cc1ccc(S(=O)(=O)NCc2nc3cccnc3n2Cc2ccccc2)cc1` here?
Answer: The Potency was “inactive”.

Question: Which Potency does the source give for `COc1ccc(-n2ncc(C(=O)N3CCN(C(=O)c4ccco4)CC3)c2C2CCN(C(=O)OC(C)(C)C)CC2)cc1` here?
Answer: The Potency was “inactive”.

Question: How did the Potency turn out when `CCCCCCCCSc1nnc(-c2ccc(OC)cc2)o1` was run?
Answer: Its Potency is inconclusive: 8.91 µM [inhibitor, partial curve].

Question: With `CCOC(=O)c1ccc(NCc2ccc(N(C)C)cc2)cc1` as the molecule, how does the Potency read?
Answer: Its Potency is inconclusive: 5.01 µM [inhibitor, partial curve].

Question: With `CC(=O)O[C@@H]1C[C@H]2C(C)(C)C(=O)C=C[C@]2(C)[C@H]2CC[C@@]3(C)[C@H](c4ccoc4)OC(=O)[C@H]4O[C@]43[C@@]21C` as the molecule, how does the Potency read?
Answer: Its Potency is inconclusive: 11.2 µM [inhibitor, partial curve].

Question: `O=C(NNc1nc2ccccc2s1)C1CC1` was tested. Which Potency did it give?
Answer: The Potency was “inactive”.

Question: Which Potency does the source give for `O=C(Cc1coc2ccc3ccccc3c12)Nc1nnc(C2CC2)s1` here?
Answer: Its Potency is “inactive”.

Question: For `COc1ccc(Nc2nc3ccc(C)cn3c(=O)c2/C=N/O)cc1`, which Potency is on record?
Answer: The Potency was inconclusive: 3.98 µM [inhibitor, full curve].

Question: With `O=C(CCN1C(=O)/C(=C\c2cccs2)SC1=S)NC1=NCCS1` as the molecule, how does the Potency read?
Answer: The Potency was inconclusive: 3.98 µM [inhibitor, partial curve].

Question: With `CCn1c(O)c(/C=N/n2cnnc2)sc1=S` as the molecule, how does the Potency read?
Answer: The Potency was inconclusive: 3.16 µM [inhibitor, partial curve].

Question: With `COc1ccc(N2C(=O)CC(Nc3ccc(N4CCOCC4)cc3)C2=O)c(OC)c1` (stereo not drawn) as the molecule, how does the Potency read?
Answer: Its Potency is inconclusive: 17.8 µM [inhibitor, partial curve].

Question: For `CCOc1ccc(CCNC(=O)c2cc3sccc3n2CC)cc1OCC`, which Potency is on record?
Answer: The Potency was inconclusive: 14.1 µM [inhibitor, partial curve, poor fit] and inconclusive: 20 µM [inhibitor, partial curve, poor fit].

Question: With `COc1ccc2c(c1)C(c1ccccc1)=NNC(c1ccco1)=N2` as the molecule, how does the Potency read?
Answer: The Potency was inconclusive: 17.8 µM [inhibitor, partial curve].

Question: For `CCCC(=O)NC1=C(C#N)C2(CCCC2)Cc2ccccc21`, which Potency is on record?
Answer: The Potency was “inactive”.

Question: For `CC1CCN(C(=O)c2ccc(S(=O)(=O)Cc3cccc(F)c3)c([N+](=O)[O-])c2)CC1`, which Potency is on record?
Answer: Its Potency is inconclusive: 10 µM [inhibitor, partial curve, poor fit].

Question: For `CCc1nc2ccc(C(=O)N3CCN(c4cc(C)ccc4C)CC3)cc2nc1CC`, which Potency is on record?
Answer: Its Potency is inconclusive: 17.8 µM [inhibitor, single point].

Question: With `COc1ccc(NC(=O)COC(=O)c2ccc(O)cc2)c([N+](=O)[O-])c1` as the molecule, how does the Potency read?
Answer: The Potency was inconclusive: 25.1 µM [inhibitor, partial curve].
